Reference: the supplement of paper PMC8728848
The list shows a part of the results.

What was measured:
Test in all cases: glycan array binding signal (z-score within array); higher = stronger binding
Conditions in all cases: glycan notation: IUPAC condensed, linker removed
[1] = biological target: GlcNAc(a1-6)Gal(b1-4)GlcNAc
Method in brief: (§1)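 Glycan array data were curated from 3228 arrays in the Consortium for Functional Glycomics database and kept only where the protein sequence was available. Glycan names were converted to IUPAC-condensed notation, and columns mapping to the same glycan were averaged. The binding signal is a within-array Z-score, averaged across arrays of the same protein sequence at different concentrations or buffers and across linkers. Negative Z-scores can be read as non-binding.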

[2] = biological target: GlcNAc(b1-2)Gal(b1-3)GalNAc
Method in brief: as §1

[3] = biological target: GlcNAc(b1-2)Man(a1-3)[GlcNAc(b1-2)Man(a1-6)]Man(b1-4)GlcNAc(b1-4)GlcNAc
Method in brief: as §1

[4] = biological target: GlcNAc(b1-2)Man(a1-3)[GlcNAc(b1-2)Man(a1-6)]Man(b1-4)GlcNAc(b1-4)[Fuc(a1-6)]GlcNAc
Method in brief: as §1

[5] = biological target: GlcNAc(b1-2)Man(a1-3)[GlcNAc(b1-4)][GlcNAc(b1-2)Man(a1-6)]Man(b1-4)GlcNAc(b1-4)GlcNAc
Method in brief: as §1

[6] = biological target: GlcNAc(b1-2)Man(a1-3)[GlcNAc(b1-4)][GlcNAc(b1-2)Man(a1-6)]Man(b1-4)GlcNAc(b1-4)[Fuc(a1-6)]GlcNAc
Method in brief: as §1

[7] = biological target: GlcNAc(b1-2)[GlcNAc(b1-4)]Man(a1-3)[GlcNAc(b1-2)Man(a1-6)]Man(b1-4)GlcNAc(b1-4)GlcNAc
Method in brief: as §1

[8] = biological target: GlcNAc(b1-2)[GlcNAc(b1-4)]Man(a1-3)[GlcNAc(b1-4)][GlcNAc(b1-2)Man(a1-6)]Man(b1-4)GlcNAc(b1-4)GlcNAc
Method in brief: as §1

[9] = biological target: GlcNAc(b1-2)[GlcNAc(b1-4)]Man(a1-3)[GlcNAc(b1-4)][GlcNAc(b1-2)[GlcNAc(b1-6)]Man(a1-6)]Man(b1-4)GlcNAc(b1-4)GlcNAc
Method in brief: as §1

[10] = biological target: GlcNAc(b1-2)[GlcNAc(b1-4)]Man(a1-3)[GlcNAc(b1-4)][GlcNAc(b1-2)[GlcNAc(b1-6)]Man(a1-6)]Man(b1-4)GlcNAc(b1-4)[Fuc(a1-6)]GlcNAc
Method in brief: as §1

[11] = biological target: GlcNAc(b1-2)[GlcNAc(b1-6)]Man(a1-6)[GlcNAc(b1-2)Man(a1-3)]Man(b1-4)GlcNAc(b1-4)GlcNAc
Method in brief: as §1

[12] = biological target: GlcNAc(b1-2)[GlcNAc(b1-6)]Man(a1-6)[GlcNAc(b1-2)Man(a1-3)]Man(b1-4)GlcNAc(b1-4)[Fuc(a1-6)]GlcNAc
Method in brief: as §1

[13] = biological target: GlcNAc(b1-2)[GlcNAc(b1-6)]Man(a1-6)[GlcNAc(b1-4)][GlcNAc(b1-2)Man(a1-3)]Man(b1-4)GlcNAc(b1-4)GlcNAc
Method in brief: as §1

[14] = biological target: GlcNAc(b1-3)Fuc
Method in brief: as §1

[15] = biological target: GlcNAc(b1-3)Gal
Method in brief: as §1

[16] = biological target: GlcNAc(b1-3)Gal(b1-3)GalNAc
Method in brief: as §1

[17] = biological target: GlcNAc(b1-3)Gal(b1-4)Glc
Method in brief: as §1

[18] = biological target: GlcNAc(b1-3)Gal(b1-4)GlcNAc
Method in brief: as §1

[19] = biological target: GlcNAc(b1-3)Gal(b1-4)GlcNAc(b1-2)Man(a1-3)[GlcNAc(b1-3)Gal(b1-4)GlcNAc(b1-2)Man(a1-6)]Man(b1-4)GlcNAc(b1-4)GlcNAc
Method in brief: as §1

[20] = biological target: GlcNAc(b1-3)Gal(b1-4)GlcNAc(b1-2)Man(a1-3)[GlcNAc(b1-3)Gal(b1-4)GlcNAc(b1-2)Man(a1-6)]Man(b1-4)GlcNAc(b1-4)[Fuc(a1-6)]GlcNAc
Method in brief: as §1

[21] = biological target: GlcNAc(b1-3)Gal(b1-4)GlcNAc(b1-2)[GlcNAc(b1-3)Gal(b1-4)GlcNAc(b1-6)]Man(a1-6)[GlcNAc(b1-3)Gal(b1-4)GlcNAc(b1-2)Man(a1-3)]Man(b1-4)GlcNAc(b1-4)GlcNAc
Method in brief: as §1

[22] = biological target: GlcNAc(b1-3)Gal(b1-4)GlcNAc(b1-3)Gal(b1-4)GlcNAc
Method in brief: as §1

B1: HA-11100 (Pseudomonas aeruginosa), Q02G51_PSEAB (protein)
chain: QFNPNEIKISQQGKTTLIDQSTQRAIINWKGFDVSADEAVRFNQPGVTSSTLNRVTAGQESVIAGRISAPGQVIIYNSNGVVFSGSAKVDVGSLITTTANISDEHFRQGKLIFDQPGNPDARIVNDGSISVAEKGLAAFVAPSVANNGVINARLGTVAMAAGNAATIDLYG
glycan array binding signal (z-score) [1]: -0.238 | glycan array binding signal (z-score) [2]: -0.142 | glycan array binding signal (z-score) [3]: -0.208 | glycan array binding signal (z-score) [4]: -0.209 | glycan array binding signal (z-score) [5]: -0.734 | glycan array binding signal (z-score) [6]: -0.527 | glycan array binding signal (z-score) [7]: -0.37 | glycan array binding signal (z-score) [8]: -0.197 | glycan array binding signal (z-score) [9]: -0.518 | glycan array binding signal (z-score) [10]: 0.051 | glycan array binding signal (z-score) [11]: -0.238 | glycan array binding signal (z-score) [12]: 0.486 | glycan array binding signal (z-score) [13]: -0.502 | glycan array binding signal (z-score) [14]: -0.317 | glycan array binding signal (z-score) [15]: -0.414 | glycan array binding signal (z-score) [16]: -0.226 | glycan array binding signal (z-score) [17]: -0.359 | glycan array binding signal (z-score) [18]: -0.399 | glycan array binding signal (z-score) [19]: 0.12 | glycan array binding signal (z-score) [20]: 0.106 | glycan array binding signal (z-score) [21]: -0.161 | glycan array binding signal (z-score) [22]: -0.67
